{
  "source": "the supplement of paper PMC10300432",
  "binders": {"B1": {"name": "C5176 (protein)", "chain 1": "EVQLVQSGAEVKKPGESLKISCKGSGYTFTTYWIGWVRQMPGKGLEWMGVIYPGDSDTRYDPSFQGQVTISADKSINTAYLQWSSLKASDTAMYYCAKLRGMALPAPPDYWGQGTLVTVSS", "chain 2": "DIQMTQSPSSLSASVGDRVTITCQASQDISNYLDWYQQKPGKAPKVLIYEASNLEKGVPSRFSGSRSGTDFTFTISSLQPEDIATYYCLQYHNLPLTFGGGTKVEIK"}, "B2": {"name": "C5171 (protein)", "chain 1": "QVQLVESGGGVVPPGRSLRLSCAASGFTFRHYAMHWVRQAPGKGLEWVAGTSYDGEKTAYGDSVKGRCTISRDNPKNALYLQINSLRRDDTAVYYCAKVGGTYCSATSCFGGYLDYWGQGILVTVSS", "chain 2": "DIQMTQSPSSLSASVGDRVTITCQASQDISNYLNWYQQKPGKAPKLLIYDASNLETGVPSRFSGSGSGTDFTFTISNLQPEDIATYYCQHYDNLPPFTFGPGTKVDIK"}, "B3": {"name": "C5188 (protein)", "chain 1": "QVQLVQSGAEVKKPGSSVKVSCKASGGTFSNHAINWVRQAPGQGLEWMGGNIPIFKTAQYAQKFQGRITITADESTSTAYMELSSLKSDDTAVYFCARENSATIAFGEVIVIANYFDHWGQGTLVTVSS", "chain 2": "DIQMTQSPSSLSASVGDRVTITCRASQSISRHLNWYQQKPGKAPSLLIYAASNLQSGVPSRFSGSASGTDFTLTISGLQPEDFATYYCQQSYTTFSFTFGPGTKVDIK"}, "B4": {"name": "C5179 (protein)", "chain 1": "QVQLVQSGPEVKKPGTSVKVSCKASGFTFSLSAVQWVRQARGQRLEWIGWSVPGRGNTKFAQKFQERVTITRDMSTSTAYMELSSLRSEDTAVYYCAAPHCNSTTCYDGFDIWGQGTMVTVSS", "chain 2": "EIVLTQSPGTLSLSPGERATLSCRASQSVSSSYFAWYQQKPGQAPRLLIYGASSRATGIPDRFSGSGSGTDFTLTISSLEPEDFAVYYCQQYGRSEWTFGQGTKVEIK"}, "B5": {"name": "C5175 (protein)", "chain 1": "EVQLVESGGGLIQPGGSLRLSCAASGFIVSRNYMSWLRQAPGKGLEWVSVMYSGGSTFYADSVKGRFTISRDNSKNTLYLQMNSLRAEDTAVYYCARDYGDFYFDYWGQGTLVTVSS", "chain 2": "EIVLTQSPATLSLSPGERATLSCGASEIVSSSHLAWYQQKPGLAPRLLIYDASSRAIGIPDRFSGSGSGTDFTLTISRLEPEDFAVYYCQQYAGSPRTFGQGTKLEIK"}, "B6": {"name": "C5170 (protein)", "chain 1": "EVQLVESGGGLVKPGRSLRLSCSASGFTFGDFAMSWFRQTPGKGLEWLGFIRSKAFGGTTQYAASVKDRFSISRDDSKSIAYLQMNSLKSEDTAVYYCTRVIPCTSTDGPCYGYYFDYWGQGILVTVSS", "chain 2": "EIVLTQSPATLSLSPGERATLSCRASQSVSTFLVWYQQKPGQAPRLLIYDASKRAPGIPARFSGSGSGTDFTLTISSLEPEDFAVYYCQQRSNWFSFGGGTKVEIK"}, "B7": {"name": "C5173 (protein)", "chain 1": "QVQLVQSGSELKKPGASVKVSCKASGYTFTNYALHWVRQAPGQGLEWLGWINTDSGTPTYAQGFTGRFVFSLDTSVSMSYLQINSLKAEDTAVYFCAKTRCTGAFCYAHSYYYSMDVWGQGTTVTVSS", "chain 2": "SYELTQPPSVAVAPGQTARITCGGDSIGSKSVHWYQQKPGQAPVLVVHDDTDRPSGIPERFSGSNSGNTATLTISRVEAGDEADFYCQVWDTSGVFGGGTKLTVL"}, "B8": {"name": "C5183 (protein)", "chain 1": "QVQLVQSGAEVKKPGSSVKVSCKASGDIFSNYDIIWVRQAPGQGLEWMGGIIPIFGTANYAQKFQGRVTITADRSTTTAYMELSSLKSEDTAVYYCARHCGSASCSWVYGMDVWGQGTTVTVSS", "chain 2": "DIQLTQSPSSLSASVGDRVTISCRASQGISSALAWYQQKSGKAPKLLVYDASTLGSGVPSRFSGSGSGTDFILTISSLQPEDFATYYCQQFKSYPRLTFGGGTKVEIK"}, "B9": {"name": "C5177 (protein)", "chain 1": "QVQLVQSGPEVKKPGTSVKVSCKASGFTFISSAVQWVRQARGQRLEWMGWIVVGTGHTNYAQSFQERVTITRDMSTSTAYMEVSSLRSEDTAVYYCAAGIHNGYFYAVDYWGQGTLVTVSS", "chain 2": "DIQMTQSPSSLSASVGDRVTITCQASQDISDFLNWYQQIPGKAPKLLIYDASNLKTGVPSRFSGSGSGTDFTFTISSLQPEDIATYYCQQYDTLPYNFGQGTKLEIK"}, "B10": {"name": "C5180 (protein)", "chain 1": "EVQLLESGGGLVQPGGSLRVSCAASGFTFSNYAMSWVRQTPGKGLEWVSTIIASSDNTYYADSVKGRFTISRDNSKNTLYLQMNSLRAEDTAVYYCAKDPVRHIVVVTPIWYFDLWGRGTLVTVSS", "chain 2": "QSVLTQPPSVSGAPGQRVTISCTGSSTNIGAGYDVHWYQQLPGTAPKLLIYGDTNRPSGVPGRFSGSKSGTSASLAITGLQPEDEADYYCQSYDYNLSGSVFGGGTKLTVL"}, "B11": {"name": "C5172 (protein)", "chain 1": "EVQLVQSGSEVKKPGESLKISCKGSGYTFTYYWIAWVRQMPGKGLEWMGIIYPGDSDTKYSPSFQDQVTFSADRSISTAYLQWSSLRASDTAIYYCARSVSLLSGDVAVTGTEALDFWGQGTLVTVSS", "chain 2": "EIVLTQSPGTLSLSPGERATLSCRASQSVDSHYLAWYQQKPGQAPRLLMFGASTRATGIPDRFSGSGSGTDFTLVISRLEPEDFAVYHCQYYGNSGGTFGQGTKLEIK"}, "B12": {"name": "C5187 (protein)", "chain 1": "QVQLVESGGAVVQPGRSLRLSCAASGFTFSSYGMHWVRQAPGKGLEWVAVIWLDGIKTYYVDSVKGRFTISRDNSKNTVYLQMNSLRAEDTAVYYCARHGSGNYYGYYFDWWGQGTLVTVSS", "chain 2": "DIQMTQSPSSLSASVGDRVTITCRASQSVSDFLNWYQQTPGKAPKLLIYAASSLHSGVPSRFSGSGSGTDFTLTITSLHPEDFATYYCQQSYITPGTFGPGTKVDIK"}, "B13": {"name": "C5174 (protein)", "chain 1": "EVQLVESGGGLIQPGGSLRLSCAASGITVSSNYMTWVRQAPGKGLEWVALIYAGGSTFYADSVKGRFTISRDNSKNTLYLQMNSLRAEDSAVYYCARDLQYYGMDVWGQGTTVTVSS", "chain 2": "DIQLTQSPSSLSASVGDRVTITCRASQGISNYLAWYQQKPGKAPKLLVYAASTLQSGVPSRFSGSGSGTDFTLTISSLQPEDFATYYCQQIDDYPLFGPGTKVDIK"}, "B14": {"name": "C5186 (protein)", "chain 1": "QVQLVQSGAEVKKPGASVKVSCKASGYTFTNYYMHWVRQAPGQGLQWMGVIDPSGGSTTYAQKFQGRVIMTRDASTSTVYMAVSSLRSEDTAVYYCARVPYGSGQPPQDFFDYWGQGTLVTVSS", "chain 2": "SYELTQPPSVSVAPGQTARIPCGGNDIGSKNVHWYQQKPGQAPFLVVYDDTDRPSGIPERFSGSNSGNTATLTISRVVAGDEADYYCQVWESSGDHWVFGGGTKLTVL"}, "B15": {"name": "C5040 (protein)", "chain 1": "EVQLLESGGGLVQPGGSLRLSCAASGFIFSNYAMNWVRQAPGKGLEWVSGISGSSSSRYYADSVKGRFTISRDNSKNTLYLQMNSLRAEDTAVYYCAKPGYPRSYSYDTSGYSPYYFDYWGQGTLVTVSS", "chain 2": "DIQMTQSPSTLSASVEDRVTITCRASQSIGRWLAWYQHKPGKAPKLLIYDASSLESGVPSRFSGSGSGTEFTLTISGLQSDDFATYYCQHYNTYSGLPFGGGTKVEIK"}},
  "note": "Recombinant human monoclonal antibodies (heavy:light variable regions). ELISA EC50 on the named antigen, from 10 µg/ml down; IC50 against spike pseudovirus on HT1080-ACE2 cells, 48 h; lower = stronger. Calls: IC50 above 1,000 ng/ml = non-neutralizing; EC50 above 1,000 ng/ml = non-binder.",
  "data": [
    {"biological_target": "SARS-CoV-2 Omicron BA.1 spike pseudovirus", "test": "pseudovirus neutralization IC50; higher = weaker neutralization", "method": "(§1)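 Single-round luciferase reporter pseudovirus mixed with antibody dilutions and put on HT1080-ACE2 clone 14 cells for 48 h; signal relative to no-antibody wells, four-parameter fit.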", "units": {"pseudovirus neutralization IC50": "ng/mL"}, "values": [
      {"binder": "B1", "pseudovirus neutralization IC50": "> 1000"},
      {"binder": "B2", "pseudovirus neutralization IC50": "> 1000"},
      {"binder": "B3", "pseudovirus neutralization IC50": "> 1000"},
      {"binder": "B4", "pseudovirus neutralization IC50": 1.79},
      {"binder": "B5", "pseudovirus neutralization IC50": 5.35},
      {"binder": "B6", "pseudovirus neutralization IC50": 113},
      {"binder": "B7", "pseudovirus neutralization IC50": 342},
      {"binder": "B8", "pseudovirus neutralization IC50": 4.74},
      {"binder": "B9", "pseudovirus neutralization IC50": 2.65},
      {"binder": "B10", "pseudovirus neutralization IC50": "> 1000"},
      {"binder": "B11", "pseudovirus neutralization IC50": 414},
      {"binder": "B12", "pseudovirus neutralization IC50": 13.6},
      {"binder": "B13", "pseudovirus neutralization IC50": 43.4},
      {"binder": "B14", "pseudovirus neutralization IC50": "> 1000"},
      {"binder": "B15", "pseudovirus neutralization IC50": "> 1000"}
    ]},
    {"biological_target": "SARS-CoV-2 Omicron BA.4/5 spike pseudovirus", "test": "pseudovirus neutralization IC50; higher = weaker neutralization", "method": "as §1", "units": {"pseudovirus neutralization IC50": "ng/mL"}, "values": [
      {"binder": "B1", "pseudovirus neutralization IC50": "> 1000"},
      {"binder": "B2", "pseudovirus neutralization IC50": "> 1000"},
      {"binder": "B3", "pseudovirus neutralization IC50": 640},
      {"binder": "B4", "pseudovirus neutralization IC50": "> 1000"},
      {"binder": "B5", "pseudovirus neutralization IC50": 254},
      {"binder": "B6", "pseudovirus neutralization IC50": "> 1000"},
      {"binder": "B7", "pseudovirus neutralization IC50": "> 1000"},
      {"binder": "B8", "pseudovirus neutralization IC50": 3.86},
      {"binder": "B9", "pseudovirus neutralization IC50": 106},
      {"binder": "B10", "pseudovirus neutralization IC50": "> 1000"},
      {"binder": "B11", "pseudovirus neutralization IC50": 707},
      {"binder": "B12", "pseudovirus neutralization IC50": "> 1000"},
      {"binder": "B13", "pseudovirus neutralization IC50": 33.1},
      {"binder": "B14", "pseudovirus neutralization IC50": "> 1000"},
      {"binder": "B15", "pseudovirus neutralization IC50": "> 1000"}
    ]},
    {"biological_target": "SARS-CoV-2 Wuhan-Hu-1 spike pseudovirus", "test": "pseudovirus neutralization IC50; higher = weaker neutralization", "method": "as §1", "units": {"pseudovirus neutralization IC50": "ng/mL"}, "values": [
      {"binder": "B1", "pseudovirus neutralization IC50": 760},
      {"binder": "B2", "pseudovirus neutralization IC50": "> 1000"},
      {"binder": "B3", "pseudovirus neutralization IC50": 877},
      {"binder": "B4", "pseudovirus neutralization IC50": 1.44},
      {"binder": "B5", "pseudovirus neutralization IC50": 4.06},
      {"binder": "B6", "pseudovirus neutralization IC50": 0.396},
      {"binder": "B7", "pseudovirus neutralization IC50": 582},
      {"binder": "B8", "pseudovirus neutralization IC50": 3.38},
      {"binder": "B9", "pseudovirus neutralization IC50": 2.35},
      {"binder": "B10", "pseudovirus neutralization IC50": "> 1000"},
      {"binder": "B11", "pseudovirus neutralization IC50": "> 1000"},
      {"binder": "B12", "pseudovirus neutralization IC50": 2.98},
      {"binder": "B13", "pseudovirus neutralization IC50": 1.7},
      {"binder": "B14", "pseudovirus neutralization IC50": 797},
      {"binder": "B15", "pseudovirus neutralization IC50": 122}
    ]},
    {"biological_target": "SARS-CoV-2 Wuhan-Hu-1 spike receptor-binding domain", "test": "ELISA binding EC50; higher = weaker binding; ELISA of recombinant human antibody on coated antigen, from 10 µg/ml in fourfold dilutions; four-parameter fit.", "units": {"ELISA binding EC50": "ng/mL"}, "values": [
      {"binder": "B1", "ELISA binding EC50": 5.58},
      {"binder": "B2", "ELISA binding EC50": 6.11},
      {"binder": "B3", "ELISA binding EC50": 4.29},
      {"binder": "B4", "ELISA binding EC50": 2.77},
      {"binder": "B5", "ELISA binding EC50": 3.7},
      {"binder": "B6", "ELISA binding EC50": 3.07},
      {"binder": "B7", "ELISA binding EC50": 4.06},
      {"binder": "B8", "ELISA binding EC50": 4.14},
      {"binder": "B9", "ELISA binding EC50": 3.06},
      {"binder": "B10", "ELISA binding EC50": 6.13},
      {"binder": "B11", "ELISA binding EC50": 8.19},
      {"binder": "B12", "ELISA binding EC50": 4.57},
      {"binder": "B13", "ELISA binding EC50": 2.76},
      {"binder": "B14", "ELISA binding EC50": 4.13},
      {"binder": "B15", "ELISA binding EC50": 18.2}
    ]}
  ]
}
